From patent US20090221441A1, “THREE-DIMENSIONAL CELLULAR ARRAY CHIP AND PLATFORM FOR TOXICOLOGY ASSAYS” (Rensselaer Polytechnic Institute, priority 2005, published 2009)
Where two headings read alike, the source gives them in different places.

Experiments:
[1] = Cytotoxicity of compounds and their P450-generated metabolites, Hep3B DataChip stamped with MetaChip; conditions: human
Procedure: (§1) The cytotoxicity of drugs (or drug metabolites) was determined by staining the slide containing the cells with a Live/Dead test kit (Molecular Probes) that produces a green fluorescent response from living cells. At the end of the 3-day culture period post stamping, the three-dimensional cell chip (DataChip) was rinsed three times in PBS for 5 min each. One mL of a dye solution containing 0.5 μM calcein AM was applied to each three-dimensional cell chip using a glass slide with 1 mm thick perimeter gasket acting as a barrier to prevent loss of the dye solution.
(§2) Following incubation for 50 minutes at room temperature, excess dye in the collagen-gel drops was removed by incubating the slides in a petri dish containing 16 mL of PBS for 30 min on a gyratory shaker at 60 rpm. The three-dimensional cell chip was dried thoroughly with nitrogen. The three-dimensional cell chip was scanned with the GenePix® Professional 4200A scanner equipped with blue laser and standard blue filter to determine the green fluorescent intensity and was quantified from the scanning image using GenePix Pro 6.0 (Molecular Devices Co.).
(§3) Percent live cells=(FReaction/FMax)×100
(§4) where FReaction is the green fluorescence intensity of the reaction spot and FMax is the green fluorescence intensity of untreated fully viable cells.
(§5) For efficient stamping, MTMOS-coated glass slides were prepared to contain a sol-gel barrier on the periphery of the slides.
(§6) To this end […] of methyltrimethoxysilane (MTMOS) sol was prepared by mixing 2 mL of MTMOS with 1 mL of HCl (10 mM) and sonicated for 10 min. The sol was spotted on the periphery of the MTMOS-coated slide and then the slide was baked in an oven for 30 min at 120° C.
(§7) The MetaChip was stored at −80° C. for 1 day prior to use. Cytotoxicity studies were performed by spotting 20 nL of test compound in distilled water (0-2 mM) onto the MetaChip spots and partially dried.
(§8) This was followed by stamping of the three-dimensional cell chip (DataChip) containing either MCF7 or Hep3B cells onto the MetaChip.
(§9) To this end, a MetaChip consisting of 20×54 alginate spots was prepared; each spot containing a single human P450 isoform (CYP1A2, CYP2D6, or CYP3A4), a mixture of the three isoforms, or no P450 as a test compound only control. Addition of test compounds was carried out by overlay spotting of solutions of these compounds onto the MetaChip, which was then stamped on top of the DataChip.
(§10) Using three DataChips in combination with three MetaChips, IC50 values for 27 compounds and their P450-generated metabolites against human Hep3B cells were determined. […] The three P450 isoforms were used along with an equimolar mixture of the three isoforms and a test compound only control without P450. The test compounds were added to the MetaChip, which was then stamped onto the DataChip and incubated for 6 h. This was followed by removing the DataChip, rinsing with growth medium, incubating in media for 3 days, and then stained for cell viability.

human Hep3B cells = test: as above
Procedure: as §1, §2, §3, §4, §5, §6, §7, §8, §9, §10

[2] = system: MCF7 human breast cancer cells; test: cells; conditions: MCF7, read-out: IC50 evaluated on the DataChip
Procedure: as §1

[3] = system: Hep3B human hepatoma cells; test: cells; conditions: read-out: Calculated IC50, Alginate DataChip (Hep3B)
Procedure: as §1, §2, §3, §4
(§11) The alginate-containing three-dimensional cell chip (DataChip) was prepared as follows. […]

MCF7 cells [4] = test: cells; conditions: Homo sapiens, MCF7, read-out: Calculated IC50, Alginate DataChip (MCF7)
Procedure: as §1, §2, §3, §4, §11

MCF7 cells [5] = test: cells; conditions: Homo sapiens
MCF7 cells [6] = test: cells; conditions: Homo sapiens; remark: listed apart in the source
MCF7 cells [7] = conditions: read-out: IC50, 2D literature values; 2D cultures in 96-well plates, Refs 1-5; cited from earlier work
[8] = IC50, CYP1A2, Hep3B DataChip, MetaChip spots with CYP1A2
[9] = IC50, CYP2D6, Hep3B DataChip, MetaChip spots with CYP2D6
[10] = IC50, CYP3A4, Hep3B DataChip, MetaChip spots with CYP3A4
[11] = IC50, Mixture, Hep3B DataChip, equimolar mixture of CYP1A2, CYP2D6, CYP3A4
[12] = IC50, No P450, Hep3B DataChip, test compound only control without P450

Row | IC50 [2] [µM] | IC50 [3] [µM] | IC50 (MCF7 cells [4]) [µM] | IC50 (MCF7 cells [5]; MCF7, read-out: Calculated IC50, 2D 96-well plate) [µM] | IC50 (MCF7 cells [5]; MCF7, read-out: IC50 from 2D control in the 96-well plate) [µM] | IC50 (MCF7 cells [6]; MCF7, read-out: Calculated IC50, 3D 96-well plate) [µM] | IC50 (MCF7 cells [6]; MCF7, read-out: IC50 from 3D control) [µM] | Structure (SMILES) | IC50 at 6 h [1, 8] [µM] | IC50 at 6 h [1, 9] [µM] | IC50 at 6 h [1, 10] [µM] | IC50 at 6 h [1, 11] [µM] | IC50 at 6 h [1, 12] [µM] | Activation or deactivation of the toxic response by CYP1A2 (human Hep3B cells) | Activation or deactivation of the toxic response by CYP2D6 (human Hep3B cells) | IC50 (MCF7 cells [7]) [µM]
1 | – | – | – | – | – | – | – | Cc1ccccc1C(OCCN(C)C)c1ccccc1 (stereo not drawn) [Orphenadrine] | 179 ± 19.4 | 169 ± 27.8 | 116 ± 16.3 | 83.8 ± 17.2 | 20.5 ± 3.5 | moderately to weakly deactivated | deactivating | –
2 | 31.2 ± 0.8 | 19.9 ± 7.7 | 13.3 ± 4.8 | 4.44 ± 0.32 | 8.5 ± 0.2 | 17.3 ± 3.2 | 28.8 ± 0.2 | CC/C(=C(\c1ccccc1)c1ccc(OCCN(C)C)cc1)c1ccccc1 [Tamoxifen, tamoxifen] | 113 ± 30.2 | 28.4 ± 2.86 | 398 ± 155 | 63.8 ± 15 | 83 ± 12.8 | – | – | 1 to 8
3 | – | – | – | – | – | – | – | CC(C)NCC(O)COc1cccc2ccccc12 (stereo not drawn) [Propranolol] | 69.4 ± 10.6 | 74.6 ± 9.02 | 86 ± 13.1 | 86.1 ± 11.2 | 95.9 ± 13.6 | – | – | –
4 | – | – | – | – | – | – | – | CSc1ccc2c(c1)N(CCC1CCCCN1C)c1ccccc1S2 (stereo not drawn) [Thioridazine] | 13.6 ± 1.08 | 18.8 ± 1.22 | 46.6 ± 3.96 | 35.4 ± 3.18 | 31.6 ± 31.6 | – | – | –
